# Measurements published in the supplement of paper PMC11417369.
# The other results are listed elsewhere or left out.
# Test system: PfSIP2 AP2 domain 1 (GST-tagged)
# Experiment: gcPBM binding intensity (ln(normalized median fluorescence intensity)); higher = stronger DNA binding
# Summary of the method: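 Using an Agilent 4 × 180k array, primer-extended double-stranded 36-bp intergenic genomic probes and negative controls were exposed for 1 h to GST-fused P. falciparum DNA-binding domains expressed in E. coli. Binding was carried out in 1× PBS with 1% milk, 0.2 mg/ml BSA, 0.5% salmon testes DNA and 0.03% Triton X-100, and protein was detected with Alexa488 anti-GST antibody and a 488 nm scan. Binding intensity is the highest Masliner-normalised natural-log median intensity across replicate spots of either probe orientation.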
row,Sequence,gcPBM binding intensity (ln)
1,ATTATTATGTAGAAGGTGCTATGTTCTATAAATATA [GTGCAC_site9545],8.09
2,TACCTTTATTAATAAAGTACATTAATCTGTGTATAC [XGTACX_site8720],6.88
3,AAAAAAAAAAAAATGTGGACACAATTGTGTGTTTGT [XGTACX_site3563],7.1
4,TACATATTTTATAGCACACAAATAATAATATGTAGT [CACACA_site688],7.03
5,TTTTTGTTAAAATAAATATTATAAATATATTAATAT [TGCATGCA_negctrl_site239],6.98
6,GTTGTGGAAAGAAGTTGTACATAAAATATTATATAA [XGTACX_site4352],7.22
7,AGGCCTTTTAGTATTTCACACACGTAAATGCGTATA [CACACA_site1108],6.6
8,TTTTTTCTTTTTTTTTTTAATTATAAACATGATATT [GTGCAC_negctrl_site144],6.63
9,TAAATATATATAACATGTACATAAAATATATATATA [XGTACX_site4431],8.61
10,TATCTTCATTGTTGACGTACAGTATTTCTAAACGTT [XGTACX_site3439],6.96
11,CCACTTGTGTAATGTTGTACAAAAATAAATATATTT [XGTACX_site4598],7.03
12,CTATGAACACACACATGTACATATATTAACTCGCTA [XGTACX_site8805],7.07
13,ATAATTAAAAATAATATATATATAATATGATATTAT [GTGCAC_negctrl_site194],6.94
14,TACACATACAGACATACACACATACACATATACACA [CACACA_site6918],7.23
15,AAAAAAAAAAAAAACACACACACACGCACATATACA [CACACA_site7288],7.66
16,TATCCATATTTGTTCACACACACACCCATTTATATA [CACACA_site3571],7.27
17,ATTTTTATGTTGAAAAGTACTTGAATCCCATGTAAC [XGTACX_site4453],7.09
18,TTCTTTTTTTTTAAAACAAACAAACAAACAAACAAA [CACACA_negctrl_site832],7.06
19,TATTTATTTATTTAGTGTACATTTATATTTGTTCAT [XGTACX_site7575],7.02
20,TTAATCTTTCCTACATGTACACACAGAAAAAAAAAA [XGTACX_site5213],7.42
21,AATATAAATAAAAAATTGATTTCTTTAAAAAGGTAT [CACACA_negctrl_site1038],6.78
22,TACAAATGAGAAATATGTACATAAAAAAAAAAAAAT [XGTACX_site801],7.2

row,Sequence,gcPBM binding intensity (ln)
1,TTGTTCTTTCAAATTATACACACCAAAAAAAAAAAA [CACACA_site3070],7.21
2,TAATCATAAAAAAATACACACATATATAATATATAT [CACACA_site1983],7.32
3,ATACAAAATCTAATTTGTACACAATGTTTGATTTTT [XGTACX_site5438],6.79
4,ATACAAATTAAGCCTCAAGTTCTTTTTTTTAACATA [XGTACX_negctrl_site580],6.58
5,ATATAACATGGACACACACACATATATATATATTAT [CACACA_site6135],7.35
6,GTGAAATTATATTTTTGTACATATATTATATATTAT [XGTACX_site3387],7.07
7,AAAAAAAAGAATTATTGTACAAAAGAACAATAAATA [XGTACX_site1368],6.75
8,GGTGCACCCATATACACACACAAATACAATGATAAA [CACACA_site1132],12.4
9,GTATATATCTAAAAATATATATATATATATATATAT [CACACA_negctrl_site788],9.43
10,ATCGAAGGGGTACAAAATAAAAATAATTCTTTCAAA [TGCATGCA_negctrl_site373],7.16
11,TATAAATAAATATGGAGTACCAAAAAAATTATAAAA [XGTACX_site7581],7
12,AAGTGTTATGAAATATGTACACATATATTATATATA [XGTACX_site6022],7.32
13,AAATATAAAAAAAAAAGTACTTTGTTACTTTTCTAT [XGTACX_site6034],6.79
14,TTTTTATTAAATAAAGCACACACAACAACTTTTCAC [CACACA_site9372],7.37
15,TAACCATAAGAAGATTGTACATAATAAAAGTATTCT [XGTACX_site1117],6.84
16,AAAATAAATATAACCACACACGAAAGAGAGAGAAAA [CACACA_site3272],6.89
17,AACTGCAAAAAAAGACGTACAAATTATTAATTGCAA [XGTACX_site8929],7.04
18,ATATATATATATATATGTACATACCCAATTGTGTAA [XGTACX_site6352],9.52
19,ATTTAAAATGGTTATACACACATAAAAGGGGAAATG [CACACA_site2649],7.1
20,TACAGACATACATACACACATACATATATATATATA [CACACA_site1940],9.51
21,TTAAGTCATAAATAAAGTACATAAATATAATATATA [XGTACX_site6304],7.16
22,ATGTAAATGTTATTATGTACATATTTATTCTTCAAA [XGTACX_site7377],6.95
